Measurements taken from patent USRE50631E1, “ROR1 antibody immunoconjugates” (VelosBio Inc., priority 2017, dated 2025).
Values joined by “and” are separate entries in the source; they are usually repeats but may differ in a detail not shown here. Equal entries are not always repeated. Where two headings read alike, the source gives them in different places.

Assays:
Mec-vector = assay: Cytotoxicity in vitro (CellTiter-Glo viability), Mec-vector; conditions: read-out: EC50 (nM), cytotoxicity in vitro; Mec-vector (CLL), 72 hours
Protocol: (§1) Cells were cultured in log phase growth and distributed into 96-well plates. Each cell line was plated at a slightly different cell density, ranging from 5×10^3 to 50×10^4 cells/well. Cells in duplicate were incubated with 3-fold serial dilution of a particular immunoconjugate (10, 3.33, 1.11, 0.37, 0.12, 0.041, 0.014, and 0.0045 μM) for 72 hours at 37° C. and 5% CO2. After treatment, cells were incubated with an equal volume of CellTiter-Glo® reagent (Promega Inc.) for 15 minutes at room temperature and viability was determined by a luminometer. Curves and EC50 values were generated in GraphPad Prism using a sigmoidal dose response non-linear regression fit.
(§2) Cells were grown and distributed into 96-well plates as described in Example 5. Cells in duplicate were incubated with 3-fold serial dilution of a particular immunoconjugate (660, 220, 73.3, 24.4, 8.14, 2.71, 0.91, and 0.3 nM) for 72 hours at 37° C. and 5% CO2. In some experiments, cells were incubated with an immunoconjugate for 96 hours instead of 72 hours (values highlighted with “*”). After treatment, cell viability was determined as described in Example 5. Cell surface ROR1 expression was assessed by quantitative flow cytometry and ROR1 expression was characterized as MFI>30 or MFI<30 (MFI: mean fluorescent intensity).
(§3) The MEC1 cell line, which is derived from B-chronic lymphocytic leukemia in prolymphocytoid transformation, was transfected with either an expression vector encoding human ROR1 or a control vector, and stable cell lines were created using selection media containing G418.

Mino = assay: Cytotoxicity in vitro (CellTiter-Glo viability), Mino; type: cell-based, human; conditions: Mino (MCL)
FaDu = type: cell-based, human; conditions: FaDu (HN), 72 hours; read-out: EC50 (nM), cytotoxicity in vitro
A549 = assay: Cytotoxicity in vitro (CellTiter-Glo viability), A549; type: cell-based, human; conditions: A549 (NSCLC), 72 hours
H460 = assay: Cytotoxicity in vitro (CellTiter-Glo viability), H460; type: cell-based, human; conditions: H460 (NSCLC)
Mec-ROR = assay: Cytotoxicity in vitro (CellTiter-Glo viability), Mec-ROR; conditions: read-out: EC50 (nM), cytotoxicity in vitro; Mec-ROR (CLL), 72 hours
Protocol: as §1, §2, §3

Hep-G2 = type: cell-based, human; conditions: Hep-G2 (HCC), 72 hours; read-out: EC50 (nM), cytotoxicity in vitro
U2OS = type: cell-based, human; conditions: U2OS (OS), 72 hours; read-out: EC50 (nM), cytotoxicity in vitro
KMS-PE = assay: Cytotoxicity in vitro (CellTiter-Glo viability), KMS-PE; type: cell-based, human; conditions: KMS-PE (KMS-12PE in Table 9.3) (MM), 72 hours
MDA-MB-231 = assay: Cytotoxicity in vitro (CellTiter-Glo viability), MDA-MB-231; type: cell-based, human; conditions: MDA-MB-231 (TNBC)
DOHH2 = conditions: read-out: EC50 (nM), cytotoxicity in vitro; DOHH2 (DLBCL), 72 hours
Protocol: (§4) ROR1 binding by these conjugates was tested in cell culture to define the potency of various linker-cytotoxic agent combinations. Three different types of cancer cell lines were tested: B-lymphoma cell-lines TMD-8, HBL-1, and DOHH2; triple negative breast cancer cell lines HCC1187, MDA-MB-468, Bt549; and ovarian cancer cell lines A2008, TOV112D, JHOM1, and SKOvr3.
as §1, §2

MCF-7 = assay: Cytotoxicity in vitro (CellTiter-Glo viability), MCF-7; type: cell-based, human; conditions: MCF-7 (ER+/PR+/HER2− Breast), 72 hours
Jeko-1 MCL xenograft = assay: Jeko-1 human MCL xenograft model (study 7); type: in vivo, mouse; conditions: 1 mg/kg ADC-N, ADC-P, ADC-R; 5 mg/kg ADC-A, ADC-L, ADC-M, ADC-S, ADC-T; IV Q4D
Protocol: Jeko-1 (MCL) cells were engrafted subcutaneously into mice. When tumor size reached 100 mm^3, the mice were randomized into nine groups, 9 mice/group. The groups were vehicle control; 1 mg/kg ADC-N, ADC-P or ADC-R; or 5 mg/kg ADC-A, ADC-L, ADC-M, ADC-S, or ADC-T. The mice were dosed IV q4d.

Jeko-1 = assay: Cytotoxicity in vitro (CellTiter-Glo viability), Jeko-1; type: cell-based, human; conditions: Jeko-1 (MCL), read-out: EC50 (nM), cytotoxicity in vitro
[1] = biological target: T1, cell surface ROR1 on Jeko-1 cells (Homo sapiens, UniProt Q01973); assay: Cell surface ROR1 expression during internalization, Jeko-1 cells; type: cell-based; conditions: up to 4 hours
T1 construct: The Jeko-1 cell line, from mantle cell lymphoma, is a suspension cell line; host or cells: Jeko-1 (human mantle cell lymphoma)
T1 sequence (Q01973 30-937): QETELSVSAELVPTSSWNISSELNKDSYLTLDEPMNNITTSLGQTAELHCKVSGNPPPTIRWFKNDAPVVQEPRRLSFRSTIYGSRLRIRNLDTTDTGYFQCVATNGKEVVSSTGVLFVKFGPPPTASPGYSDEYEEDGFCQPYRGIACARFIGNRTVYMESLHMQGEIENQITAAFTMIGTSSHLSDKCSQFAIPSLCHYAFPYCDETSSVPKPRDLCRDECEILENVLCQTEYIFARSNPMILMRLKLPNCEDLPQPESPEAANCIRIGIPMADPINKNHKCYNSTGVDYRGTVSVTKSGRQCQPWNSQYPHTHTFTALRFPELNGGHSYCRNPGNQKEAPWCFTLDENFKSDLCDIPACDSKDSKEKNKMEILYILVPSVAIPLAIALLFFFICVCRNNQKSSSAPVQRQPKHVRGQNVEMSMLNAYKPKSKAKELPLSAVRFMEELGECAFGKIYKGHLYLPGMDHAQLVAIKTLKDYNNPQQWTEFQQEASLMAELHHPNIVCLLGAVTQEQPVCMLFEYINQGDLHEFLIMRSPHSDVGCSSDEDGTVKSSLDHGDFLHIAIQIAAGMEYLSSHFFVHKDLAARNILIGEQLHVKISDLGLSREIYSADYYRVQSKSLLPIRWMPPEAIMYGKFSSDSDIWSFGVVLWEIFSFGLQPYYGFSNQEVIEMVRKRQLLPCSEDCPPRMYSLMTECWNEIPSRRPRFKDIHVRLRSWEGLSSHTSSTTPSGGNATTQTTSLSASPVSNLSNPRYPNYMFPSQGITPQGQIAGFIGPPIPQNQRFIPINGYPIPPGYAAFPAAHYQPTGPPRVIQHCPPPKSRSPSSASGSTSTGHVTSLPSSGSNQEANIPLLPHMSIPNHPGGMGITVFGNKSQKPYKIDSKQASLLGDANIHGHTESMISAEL
Protocol: Internalization of antibodies was measured using pulse-chase approaches that detected non-internalized, cell surface antibody at various time points (2, 5, 10, 15, 20, 30, 60, 120 and 240 minutes). In this study, in addition to measuring non-internalized cell surface antibody, the expression of ROR1 on the cell surface was quantitated either by (1) re-staining with Ab1 and a secondary antibody or (2) by using a second, labeled anti-ROR1 antibody that recognizes an epitope distinct from that of Ab1.
For the first approach, internalization of Ab1 on Jeko-1 cells was performed as described in Example 3 (one sample was processed at each time point to quantitate antibody remaining on the cell surface). Additionally, a second sample at each time point was rapidly re-stained using saturating levels of Ab1 (30 μg/mL) while maintaining the cells on ice. Subsequently, the cells were washed and surface antibody was quantitated using the same secondary antibody used for internalization measurements.
An alternative approach to measuring cell surface ROR1 expression in conjunction with Ab1 internalization studies was tested. Specifically, cell surface ROR1 expression was quantitated at 0, 0.5, 1, 2, and 4 hours by staining cells directly with a labeled anti-ROR1 antibody that binds an epitope distinct from that of Ab1.

MDA-MB-468 = assay: Cytotoxicity in vitro (CellTiter-Glo viability), MDA-MB-468; conditions: read-out: EC50 (nM), cytotoxicity in vitro, MDA-MB-468 (TNBC)
Protocol: as §4, §1, §2

HCC1187 = assay: Cytotoxicity in vitro (CellTiter-Glo viability), HCC1187; conditions: read-out: EC50 (nM), cytotoxicity in vitro; HCC1187 (TNBC), 96 hours (values marked *)
Protocol: as §4, §1
Cells were grown and distributed into 96-well plates as described in Example 5. […] After treatment, cell viability was determined as described in Example 5. Cell surface ROR1 expression was assessed by quantitative flow cytometry and ROR1 expression was characterized as MFI>30 or MFI<30 (MFI: mean fluorescent intensity).

Bx-PC3 = assay: Cytotoxicity in vitro (CellTiter-Glo viability), Bx-PC3; type: cell-based, human; conditions: Bx-PC3 (Pancreatic), 96 hours (values marked *)
HCC1806 = assay: Cytotoxicity in vitro (CellTiter-Glo viability), HCC1806; type: cell-based, human; conditions: HCC1806 (TNBC), 96 hours (values marked *)
H1975 = assay: Cytotoxicity in vitro (CellTiter-Glo viability), H1975; type: cell-based, human; conditions: H1975 (NSCLC), 96 hours (values marked *)

B1: ADC-N: Ab1 conjugated via MAL-PEG4-VC-PAB-DMEA to PNU-159682 (conjugate)
heavy: QVQLQESGPGLVKPSQTLSLTCTVSGYAFTAYNIHWVRQAPGQGLEWMGSFDPYDGGSSYNQKFKDRLTISKDTSKNQVVLTMTNMDPVDTATYYCARGWYYFDYWGHGTLVTVSS[skipping human IgG1 constant region]
light: DIVMTQTPLSLPVTPGEPASISCRASKSISKYLAWYQQKPGQAPRLLIYSGSTLQSGIPPRFSGSGYGTDFTLTINNIESEDAAYYFCQQHDESPYTFGEGTKVEIKRTVAAPSVFIFPPSDEQLKSGTASVVCLLNNFYPREAKVQWKVDNALQSGNSQESVTEQDSKDSTYSLSSTLTLSKADYEKHKVYACEVTHQGLSSPVTKSFNRGEC
EC50 (Mec-vector): 772 nM
EC50 (Mino; 72 hours): 7.7 nM
EC50 (FaDu): 27.1 nM
EC50 (A549): 30.7 nM
EC50 (H460; 72 hours): 84.4 nM
EC50 (Mec-ROR): 262 nM
EC50 (Hep-G2): 20.8 nM
EC50 (U2OS): 11.2 nM
EC50 (KMS-PE): 26.8 nM
EC50 (MDA-MB-231; 72 hours): 71 nM
EC50 (DOHH2): 3.8 nM
EC50 (MCF-7): 78.6 nM
tumor growth / average tumor size (interim results, day 14) (Jeko-1 MCL xenograft): inhibition of tumor growth
EC50 (Jeko-1; 72 hours): 31.7 nM and 20.3 nM
cell surface ROR1 expression during treatment [1]: ROR1 expression was maintained, or slightly increased

B2: ADC-J: Ab1 conjugated via MAL-PEG4-VC-PAB-DMEA to Duocarmycin TM (conjugate)
heavy: B1 heavy
light: B1 light
EC50 (FaDu): 658 nM
EC50 (MDA-MB-468; 72 hours): 146 nM
EC50 (KMS-PE): 362 nM
EC50 (DOHH2): 5.97 nM
EC50 (MCF-7): 268 nM
EC50 (Jeko-1; 72 hours): 59.4 nM

B3: ADC-Q (conjugate)
heavy: B1 heavy
light: B1 light
EC50 (Mino; 96 hours (values marked *)): 139 nM
EC50 (HCC1187): 5.3 nM
EC50 (Bx-PC3): 45.6 nM
EC50 (H460; 96 hours (values marked *)): 180 nM
EC50 (HCC1806): 56.1 nM
EC50 (H1975): 26.8 nM
EC50 (MDA-MB-468; 96 hours (values marked *)): 79.7 nM
EC50 (MDA-MB-231; 96 hours (values marked *)): 168 nM
EC50 (Jeko-1; 96 hours (values marked *)): 265 nM
